# Only a part is listed here, and it is no random draw. The list includes weakly bound sequences.
# Target: T1, GST-Ap-NF-kB RHD (UniProt A0A913YAJ5)
# T1 sequence: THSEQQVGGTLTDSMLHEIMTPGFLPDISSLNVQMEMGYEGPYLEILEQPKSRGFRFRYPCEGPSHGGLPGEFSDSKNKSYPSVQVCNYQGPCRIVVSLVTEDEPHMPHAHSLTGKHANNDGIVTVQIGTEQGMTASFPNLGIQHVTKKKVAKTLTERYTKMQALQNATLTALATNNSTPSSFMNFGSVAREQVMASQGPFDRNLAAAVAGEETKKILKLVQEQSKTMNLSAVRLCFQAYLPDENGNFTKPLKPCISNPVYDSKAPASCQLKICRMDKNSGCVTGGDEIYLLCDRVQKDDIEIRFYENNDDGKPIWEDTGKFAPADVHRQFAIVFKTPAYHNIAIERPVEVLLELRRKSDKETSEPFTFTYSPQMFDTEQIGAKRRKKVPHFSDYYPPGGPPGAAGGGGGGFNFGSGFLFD
# Assay: protein-binding microarray (PBM)
# Conditions: PBM: ~300 nM protein, 6 mM HEPES pH 7.8, 80 mM KCl, 0.5 mM EDTA, 0.5 mM EGTA, 6% glycerol, 35 ng/ul poly-dIdC, 1% milk, 1 h, room temperature; high values mean tight binding; double strand, one strand shown
row,Sequence,binding signal
1,CCGATTAACATCAATAACCCCCCTGATGTTAATCGGGTCTTGATTCGCTTGACGCTGCTG,6.33 z-score
2,CCGATTAACATCAGGGGACATTATGATGTTAATCGGGTCTTGATTCGCTTGACGCTGCTG,5.74 z-score
3,CCGATTAACATCAAGGGGGGAAATGATGTTAATCGGGTCTTGATTCGCTTGACGCTGCTG,6.16 z-score
4,CCGATTAACATCAAAAAATTCCGTGATGTTAATCGGGTCTTGATTCGCTTGACGCTGCTG,0.142 z-score
5,CCGATTAACATCAAGAAATTCCCTGATGTTAATCGGGTCTTGATTCGCTTGACGCTGCTG,5.84 z-score
6,CCGATTAACATCACCCTTTTCCCTGATGTTAATCGGGTCTTGATTCGCTTGACGCTGCTG,2.88 z-score
7,CCGATTAACATCAGGGGATGTGCTGATGTTAATCGGGTCTTGATTCGCTTGACGCTGCTG,3.15 z-score
8,CCGATTAACATCAGGGGGTAGGATGATGTTAATCGGGTCTTGATTCGCTTGACGCTGCTG,4.15 z-score
9,CCGATTAACATCAGGATGTTCCCTGATGTTAATCGGGTCTTGATTCGCTTGACGCTGCTG,2.3 z-score
10,CCGATTAACATCAAATACCCCCCTGATGTTAATCGGGTCTTGATTCGCTTGACGCTGCTG,7.87 z-score
11,CCGATTAACATCAGGGGAACCTATGATGTTAATCGGGTCTTGATTCGCTTGACGCTGCTG,6.11 z-score
12,CCGATTAACATCACCTGGTCGGGTGATGTTAATCGGGTCTTGATTCGCTTGACGCTGCTG,0.704 z-score
13,CCGATTAACATCAGGGGGATACCTGATGTTAATCGGGTCTTGATTCGCTTGACGCTGCTG,7.92 z-score
14,CCGATTAACATCAGGGGGATACATGATGTTAATCGGGTCTTGATTCGCTTGACGCTGCTG,5.54 z-score
15,CCGATTAACATCAGGGGAATACCTGATGTTAATCGGGTCTTGATTCGCTTGACGCTGCTG,9.84 z-score
16,CCGATTAACATCAGGGGGACAACTGATGTTAATCGGGTCTTGATTCGCTTGACGCTGCTG,5.19 z-score
17,CCGATTAACATCAATGGGAATTCTGATGTTAATCGGGTCTTGATTCGCTTGACGCTGCTG,2.8 z-score
18,CCGATTAACATCAGGAGCCCCCCTGATGTTAATCGGGTCTTGATTCGCTTGACGCTGCTG,5.02 z-score
19,CCGATTAACATCAGGGAATTACCTGATGTTAATCGGGTCTTGATTCGCTTGACGCTGCTG,8.44 z-score
20,CCGATTAACATCAGCGAATTCCCTGATGTTAATCGGGTCTTGATTCGCTTGACGCTGCTG,3.47 z-score

row,Sequence,binding signal
1,CCGATTAACATCAGGGCGTCCCCTGATGTTAATCGGGTCTTGATTCGCTTGACGCTGCTG,6.5 z-score
2,CCGATTAACATCAAAATAGCCCCTGATGTTAATCGGGTCTTGATTCGCTTGACGCTGCTG,5.32 z-score
3,CCGATTAACATCAAAGAAGCCCCTGATGTTAATCGGGTCTTGATTCGCTTGACGCTGCTG,4.38 z-score
4,CCGATTAACATCAGGAAACTCCCTGATGTTAATCGGGTCTTGATTCGCTTGACGCTGCTG,5.65 z-score
5,CCGATTAACATCAGGGGGGTTTATGATGTTAATCGGGTCTTGATTCGCTTGACGCTGCTG,7.17 z-score
6,CCGATTAACATCAGGGGAAAACCTGATGTTAATCGGGTCTTGATTCGCTTGACGCTGCTG,9.38 z-score
7,CCGATTAACATCAGGGATTTTCATGATGTTAATCGGGTCTTGATTCGCTTGACGCTGCTG,5.23 z-score
8,CCGATTAACATCAGGGGACTATATGATGTTAATCGGGTCTTGATTCGCTTGACGCTGCTG,5.4 z-score
9,CCGATTAACATCAGGGGGAAGACTGATGTTAATCGGGTCTTGATTCGCTTGACGCTGCTG,5.87 z-score
10,CCGATTAACATCAGGGGAATTTATGATGTTAATCGGGTCTTGATTCGCTTGACGCTGCTG,9.91 z-score
11,CCGATTAACATCACAACGACCCCTGATGTTAATCGGGTCTTGATTCGCTTGACGCTGCTG,2.27 z-score
12,CCGATTAACATCAGGAGTTCCCCTGATGTTAATCGGGTCTTGATTCGCTTGACGCTGCTG,8.41 z-score
13,CCGATTAACATCAGAAATCCCCCTGATGTTAATCGGGTCTTGATTCGCTTGACGCTGCTG,11.2 z-score
14,CCGATTAACATCAAAACTTTCCCTGATGTTAATCGGGTCTTGATTCGCTTGACGCTGCTG,4.81 z-score
15,CCGATTAACATCAGGATTTTCCCTGATGTTAATCGGGTCTTGATTCGCTTGACGCTGCTG,5.75 z-score
16,CCGATTAACATCAGGGGGACTAATGATGTTAATCGGGTCTTGATTCGCTTGACGCTGCTG,5.06 z-score
17,CCGATTAACATCAGAAGTTCCCCTGATGTTAATCGGGTCTTGATTCGCTTGACGCTGCTG,7.97 z-score
18,CCGATTAACATCACAGATTCCCCTGATGTTAATCGGGTCTTGATTCGCTTGACGCTGCTG,7.65 z-score
19,CCGATTAACATCAAGCCCCCCCATGATGTTAATCGGGTCTTGATTCGCTTGACGCTGCTG,4.83 z-score
20,CCGATTAACATCAAATTACCCCCTGATGTTAATCGGGTCTTGATTCGCTTGACGCTGCTG,6.8 z-score

# Target: T2, GST-Nv-NF-kB (Cys allele) (UniProt E5G601)
# T2 sequence: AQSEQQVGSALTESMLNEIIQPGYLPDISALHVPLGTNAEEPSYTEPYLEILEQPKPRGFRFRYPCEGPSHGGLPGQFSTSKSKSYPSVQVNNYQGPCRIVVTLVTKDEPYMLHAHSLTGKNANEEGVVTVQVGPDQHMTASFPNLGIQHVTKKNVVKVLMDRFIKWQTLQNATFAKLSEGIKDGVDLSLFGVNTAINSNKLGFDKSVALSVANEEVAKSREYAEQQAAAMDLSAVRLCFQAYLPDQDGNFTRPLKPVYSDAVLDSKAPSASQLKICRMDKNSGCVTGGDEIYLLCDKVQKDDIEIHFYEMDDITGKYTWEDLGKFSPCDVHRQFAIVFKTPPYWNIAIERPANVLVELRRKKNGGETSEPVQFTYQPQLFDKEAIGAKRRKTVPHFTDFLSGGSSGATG
# Assay: protein-binding microarray (PBM)
# Conditions: PBM: ~300 nM protein, 6 mM HEPES pH 7.8, 80 mM KCl, 0.5 mM EDTA, 0.5 mM EGTA, 6% glycerol, 35 ng/ul poly-dIdC, 1% milk, 1 h, room temperature; Ap Aiptasia and Nv Nematostella (sea anemones) / Co Capsaspora / Aq Amphimedon (sponge) / Dm Drosophila / Hu human; RHD is the Rel homology domain; high values mean tight binding; most listed sequences are background and not binding sites; double strand, one strand shown
row,Sequence,binding signal
1,CCGATTAACATCAAAAAATTCCGTGATGTTAATCGGGTCTTGATTCGCTTGACGCTGCTG,0.954 z-score
2,CCGATTAACATCAGGATGTTCCCTGATGTTAATCGGGTCTTGATTCGCTTGACGCTGCTG,1.77 z-score
3,CCGATTAACATCACCTGGTCGGGTGATGTTAATCGGGTCTTGATTCGCTTGACGCTGCTG,0.834 z-score
4,CCGATTAACATCAGGGGAATACCTGATGTTAATCGGGTCTTGATTCGCTTGACGCTGCTG,11.8 z-score
5,CCGATTAACATCAATGGGAATTCTGATGTTAATCGGGTCTTGATTCGCTTGACGCTGCTG,4.72 z-score
6,CCGATTAACATCAGGGGAAAACCTGATGTTAATCGGGTCTTGATTCGCTTGACGCTGCTG,10.6 z-score
7,CCGATTAACATCAGGGGAATTTATGATGTTAATCGGGTCTTGATTCGCTTGACGCTGCTG,11.9 z-score
8,CCGATTAACATCAGAAATCCCCCTGATGTTAATCGGGTCTTGATTCGCTTGACGCTGCTG,10.5 z-score
9,CCGATTAACATCAGGGGGACTAATGATGTTAATCGGGTCTTGATTCGCTTGACGCTGCTG,4.36 z-score

# From PMC5700166
